Data taken from PubChem BioAssay AID485281 (National Center for Advancing Translational Sciences (NCATS), 2010).
Screen size: about 350,000 compounds; about 260 (0.074%) were called active. Inconclusive means that the source gave no clear call. Such entries were picked first, then a sample of the others. Calls come from the whole dose curve; as a rule, active = well fitted inhibition curve with a large enough effect; inconclusive = small, poorly fitted or top-dose-only effect; inactive = no such curve, though single readings can be large or run the other way. Where the call is inconclusive, the potency comes from a doubtful curve fit.

Target: Ferritin light chain (Equus caballus) (UniProt P02791)
Experiment: qHTS Assay for Identification of Novel General Anesthetics; note: nearly all actives have a fitted effect of over 20% in size
Details: apoferritin/1-aminoanthracene competitive binding, fluorescence; series mostly up to 77.5 µM
Summary of the method: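 10 uM apoferritin + 50% sat. 1-AMA, PBS; cpd 10 min RT; Ex380/Em535 endpoint; normalized to free probe vs complex; 4-param Hill fit; propofol titration as pos. ctrl.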
Potency is the fitted concentration of half-maximal effect; tags give direction and shape of the fitted curve.

UniProt P02791, sequence (P02791 whole entry, looked up): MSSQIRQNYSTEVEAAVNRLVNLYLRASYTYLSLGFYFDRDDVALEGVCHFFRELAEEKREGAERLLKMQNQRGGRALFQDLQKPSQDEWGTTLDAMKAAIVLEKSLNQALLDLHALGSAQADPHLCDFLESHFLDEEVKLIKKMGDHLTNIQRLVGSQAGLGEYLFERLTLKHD

SMILES	Potency
CC1CCN(C(=O)CSc2nnc(CSc3ncccn3)n2C)CC1	inconclusive: 39.8 µM [inhibitor, single point]
O=C1C2C3CCCC3=C3CCCC3C2C(=O)N1c1cccc(Cl)c1 (configuration not stated)	inconclusive: 22.4 µM [inhibitor, partial curve]
CCC(=O)Nc1ccc(C(=O)CSc2nnc(CNc3ccc(Cl)cc3)o2)cc1OC	inconclusive: 39.8 µM [inhibitor, single point]
COc1ccc(S(=O)(=O)N2CCN(S(=O)(=O)c3ccc4c(c3)OCCO4)CC2)cc1C	inactive
Cc1ccc(C)c(N2CCN(C(=O)NCc3noc4ccccc34)CC2)c1	inconclusive: 14.1 µM [inhibitor, partial curve, poor fit]
COc1ccc(C(=O)N=C2SC3CS(=O)(=O)CC3N2Cc2ccccc2)cc1OC (configuration not stated)	inactive
Oc1ccccc1-c1cc(-c2ccc3c(c2)OCCO3)n[nH]1	inconclusive: 31.6 µM [inhibitor, partial curve]
CCS(=O)(=O)NCCc1cc2cc(C)c(C)cc2[nH]c1=O	inactive
CCCSCCCNC(=O)c1ccccc1NC(=O)C1=CSCCO1	inactive
Cc1cc2ncn(-c3ncnc4scc(-c5ccccc5)c34)c2cc1C	inconclusive: 22.4 µM [inhibitor, partial curve]
COc1ccc(CN(CCC(c2ccccc2)c2ccco2)C(=O)c2ccco2)cc1 (configuration not stated)	inactive
CCCCS/C(=C(/C#N)C(N)=O)c1cc2c([nH]1)CCCC2	inconclusive: 39.8 µM [inhibitor, partial curve]
O=C(Nc1cnc2ccccc2c1)C1COc2ccccc2O1 (configuration not stated)	inconclusive: 22.4 µM [inhibitor, partial curve]
CC1CCCC(NC(=O)COC(=O)c2ccccc2[N+](=O)[O-])C1C (configuration not stated)	inconclusive: 25.1 µM [inhibitor, partial curve]
O=C(Cc1cccc(C(F)(F)F)c1)NCC(c1ccco1)N1CCCCC1 (configuration not stated)	inconclusive: 39.8 µM [inhibitor, single point]
COc1ccc(CCNC(=O)CCn2c(=O)[nH]c3cc(OC)c(OC)cc3c2=O)cc1OC	inactive
CCOC(=O)NC(NC(=S)Nc1ccccc1[N+](=O)[O-])C(Cl)(Cl)Cl (configuration not stated)	inconclusive: 25.1 µM [inhibitor, single point]
CCn1c2ccccc2c2cc(CNCc3ccc(OC)cc3OC)ccc21	inconclusive: 12.6 µM [inhibitor, partial curve]
CCOC(=O)C1=C(N)OC2=C(C(=O)CC(C)(C)C2)C1c1ccc(CC)s1 (configuration not stated)	inconclusive: 22.4 µM [inhibitor, partial curve]
Cc1cc(NC(=O)C(C)Oc2ccc(C(C)(C)C)cc2)no1 (configuration not stated)	inconclusive: 35.5 µM [inhibitor, partial curve]
CC(C)(C)NS(=O)(=O)c1ccc(NC(=O)Cc2ccccc2[N+](=O)[O-])cc1	inconclusive: 31.6 µM [inhibitor, partial curve]

SMILES	Potency
CCOc1ccccc1CNC(=O)CN1C(=O)c2cccnc2Oc2ccc(C)cc21	inconclusive: 28.2 µM [inhibitor, single point]
N[C@H](CSC(c1ccccc1)(c1ccccc1)c1ccccc1)C(=O)O	inconclusive: 56.2 µM [inhibitor, single point]
CCC(C(=O)O)C1CCC(C)C(C(C)C(O)C(C)C(=O)C(CC)C2OC3(C=CC(O)[C@@]4(CC[C@](C)(C5CC[C@@](O)(CC)C(C)O5)O4)O3)C(C)CC2C)O1 (some centres not stated)	inactive
COc1ccc(OC)c(NC(=O)N2CCC3(CC2)Oc2ccccc2C(=O)N3Cc2ccccc2F)c1	inactive
NNc1ncnc2sc3c(c12)CCC3	inconclusive: 31.6 µM [inhibitor, partial curve]
COc1cc2c(C)nc3c(c(C)nn3-c3ccccc3)c2cc1OC	inactive
COC(=O)c1cccc(NC(=O)c2nn(C)c(=O)c3ccccc23)c1	inconclusive: 35.5 µM [inhibitor, partial curve]
Cc1ccc(C(=O)COC(=O)c2ccc3c(c2)C(=O)N(c2cccc4ncccc24)C3=O)cc1	inactive
CCCN(CCC)S(=O)(=O)c1ccc(C(=O)N2CCCc3ccccc32)cc1	inconclusive: 39.8 µM [inhibitor, partial curve]
CSc1ccc(CCNC(=O)C2CCCN(S(=O)(=O)N(C)c3ccc(F)cc3)C2)cc1 (configuration not stated)	inactive
COc1ccccc1NC(=O)C(=O)N/N=C(\C)CC(=O)Nc1ccc(OCc2ccccc2)cc1	inconclusive: 14.1 µM [inhibitor, partial curve]
CCOC(=O)c1c(NC(=O)CSc2nnc(-c3ccco3)o2)sc(C)c1C	inconclusive: 7.08 µM [inhibitor, full curve]
COc1cccc(/C=N/Nc2nccnc2Cl)c1O	inactive
CC(C)c1ccc(NC(=O)c2cc(S(=O)(=O)NCCc3ccccc3)ccc2F)cc1	inconclusive: 11.2 µM [inhibitor, full curve, poor fit]
CCS(=O)(=O)c1nc(S(=O)(=O)c2ccc(C)cc2)c(N2CC(C)CC(C)C2)s1 (configuration not stated)	inconclusive: 25.1 µM [inhibitor, partial curve]
Cc1ccc(NC(=O)CN(c2ccc(Cl)cc2)S(=O)(=O)c2cc([N+](=O)[O-])ccc2Cl)c(C)c1	inconclusive: 3.16 µM [inhibitor, full curve]
COc1cc2ccccc2cc1C(=O)Nc1ccc(C)cc1	inactive
C[C@H](NC(=O)OC(C)(C)C)c1nnc(SCc2ccc(Cl)cc2Cl)o1	inconclusive: 11.2 µM [inhibitor, partial curve]
CCc1ccccc1NC(=O)Cn1nc(C)c2nn(-c3ccc(Cl)cc3)c(C)c2c1=O	inconclusive: 3.98 µM [inhibitor, full curve, poor fit]
COc1ccc(CC(C)Nc2ccccc2F)cc1 (configuration not stated)	inconclusive: 11.2 µM [inhibitor, partial curve]
Cc1cc(C(=O)OCC(=O)NCCC(C)C)c2ccccc2n1	inconclusive: 44.7 µM [inhibitor, single point]
